# Assay results taken from the supplement of paper PMC12217912.
# Some of the results follow. Sequences were assembled here from the parent chain. Inactive controls read about 0.05.
# B1: TEV protease; numbered along this chain (parent)
# chain: MGESLFKGPRDYNPISSSICHLTNESDGHTTSLYGIGFGPFIITNKHLFRRNNGTLVVQSLHGVFKVKDTTTLQQHLVDGRDMIIIRMPKDFPPFPQKLKFREPQREERICLVTTNFQTKSMSSMVSDTSCTFPSGDGIFWKHWIQTKDGQCGSPLVSTRDGFIVGIHSASNFTNTNNYFTSVPKNFMELLTNQEAQQWVSGWRLNADSVLWGGHKVFMVKPEEPFQPVKEATQL
# Variants of: B1
# Test: raw area under fraction-flipped curve 0-4 h after induction (AUC4h, not background-subtracted), DNA-recorder readout of cleavage of the substrate (dimensionless); higher = more cleavage of the substrate by the protease variant
# Settings: temperature: 34 °C; time window: 0-4 h after rhamnose induction
# Experimental: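 In vivo DNA recorder in E. coli TOP10(DE3) ΔrhaA at 34 °C. Each TEVp single-site mutant (parent TEVp 0) is paired with a single-site variant of the 7-mer TEVs (canonical ENLYFQ|S). The substrate sits between flexible linkers in a Bxb1-sfGFP-TEVs-SsrA fusion, so cleavage stabilises Bxb1 and speeds flipping of a recombination array, read by NGS. The value is the raw area under the fraction-flipped curve over 0-4 h after rhamnose induction (AUC4h), with ≥20 reads per time point. It is not background-subtracted; inactive controls average about 0.047.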
# 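Also: Bxb1 expression induced with 0.2% (w/v) L-rhamnose at OD600 near 0.5, cultures sampled hourly, flipped fraction per protease–substrate barcode pair counted by paired-end Illumina sequencing.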
Variant,area with substrate ENAYFQS,area with substrate ENCYFQS,area with substrate ENDYFQS,area with substrate ENFYFQS,area with substrate ENHYFQS,area with substrate ENKYFQS,area with substrate ENPYFQS,area with substrate ENQYFQS,area with substrate ENSYFQS,area with substrate ENVYFQS
Q227D,0.0792,0.0748,0.0632,0.0542,0.0461,0.0582,0.0203,0.0601,0.0685,0.0907
G2K,–,0.0733,0.0655,–,–,–,0.0409,0.0531,–,0.121
G2I,–,0.0734,0.0566,0.0518,–,–,0.0457,0.0613,0.053,–
K7V,–,0.0604,0.0673,0.0663,–,–,0.0538,0.0602,0.0628,–
K7Y,–,0.0609,0.06,0.048,–,–,–,–,–,–
K7H,–,0.0693,–,–,–,–,0.0909,–,–,0.0778
E231I,0.0495,0.0725,–,0.0419,0.0628,0.0439,0.0576,0.0626,0.0589,–
P228R,0.0531,–,0.0731,0.0578,0.0711,0.0299,–,0.0613,–,0.0683
P228S,0.0704,–,0.0584,0.0629,–,0.0556,0.0577,0.0137,0.0514,0.0893
S209N,0.0598,0.0625,0.049,0.0676,0.0605,–,–,0.07,0.0467,0.0726
S209K,0.0456,–,0.0808,–,–,0.0557,–,0.0783,0.0692,–
S209R,0.0659,0.0658,0.0619,0.0581,0.0454,0.0651,–,0.0645,–,0.053
G35T,–,0.0474,0.0488,0.0684,–,0.0299,–,0.0467,–,–
E25S,–,0.0764,0.0708,–,0.0553,0.0452,–,–,0.0755,0.0753
V57Q,–,0.0662,–,–,–,–,–,–,–,–
L235T,0.0594,0.0644,0.0535,–,–,0.0659,0.0725,0.0561,0.0579,0.0848
L235F,0.0691,0.0674,–,–,–,–,–,–,0.0456,0.0683
L235P,0.0496,0.0812,0.0414,–,–,–,0.0462,–,–,0.0787
P9N,–,0.0578,0.0504,0.0608,0.0505,–,–,–,–,–

Variant,area with substrate ENAYFQS,area with substrate ENCYFQS,area with substrate ENDYFQS,area with substrate ENFYFQS,area with substrate ENHYFQS,area with substrate ENKYFQS,area with substrate ENPYFQS,area with substrate ENQYFQS,area with substrate ENSYFQS,area with substrate ENVYFQS
R51S,–,0.0717,–,–,–,–,–,0.0697,–,–
R51N,–,0.0755,–,0.0828,–,–,–,–,–,0.0863
V229R,0.059,–,0.0642,–,–,0.0815,0.0276,–,–,–
V229D,0.0446,–,0.0524,–,0.064,–,–,0.0732,0.0729,–
E3V,–,0.0892,–,–,0.0593,–,–,–,–,–
Y34H,–,0.0855,–,0.0523,0.0704,–,–,0.0599,0.061,–
V210E,0.0498,–,–,–,–,0.0587,–,0.0547,0.0675,0.0542
V210P,0.0578,0.05,0.0507,0.0615,–,–,–,0.0705,0.0667,0.0623
V58L,–,0.0666,–,–,0.0618,0.065,–,0.0561,–,0.0642
T31I,–,0.0625,–,0.0657,–,–,–,0.0447,0.0519,0.0972
H215L,0.0381,–,0.067,0.0891,–,–,0.0591,0.0637,0.0541,0.0791
H215K,0.0465,0.065,0.0616,0.0797,–,0.0652,0.0681,0.0617,0.06,–
P222L,0.0483,0.0764,0.0423,0.0664,0.0778,–,0.0646,–,–,–
G213H,0.0412,–,–,0.0634,–,–,–,0.0353,–,–
D11T,–,0.0569,–,–,0.0479,–,0.0564,–,0.0608,0.0998
F38E,–,0.051,–,0.0481,–,–,–,–,–,–
F218V,0.0372,0.0686,0.065,–,–,–,–,0.0563,0.0698,–
F218I,0.0838,0.0394,–,0.0556,0.0698,0.0691,0.0584,0.0644,0.0564,–
T233Y,0.062,0.0901,0.0603,–,0.0608,–,–,0.0629,0.0628,0.0708

# Same assay, conditions: temperature: 34 °C; time window: 0-4 h after rhamnose induction
Variant,area with substrate ENWYFQS,area with substrate ENYYFQS,area with substrate ENRYFQS,area with substrate ENEYFQS,area with substrate ENMYFQS,area with substrate ENNYFQS,area with substrate ENGYFQS,area with substrate ENTYFQS,area with substrate ENIYFQS
Q227D,0.0598,0.039,–,–,–,–,–,–,–
G2K,–,0.0578,0.0553,–,–,–,–,–,–
G2I,–,–,–,0.047,0.116,0.0576,–,–,–
K7V,0.0645,0.0528,0.0735,0.0594,–,0.0646,0.0695,0.0636,–
K7Y,–,–,–,–,0.0846,0.0571,0.0628,0.058,0.106
K7H,–,–,–,–,–,0.0612,0.09,–,–
E231I,0.0066,–,0.0666,0.0577,0.0763,–,–,–,0.098
P228R,–,0.0622,–,0.0492,0.0898,–,0.041,0.0763,–
P228S,–,0.0691,–,0.0529,0.0876,0.0564,–,0.0577,–
S209N,0.0549,–,0.0522,0.0701,0.0835,–,0.0564,0.0407,–
S209K,–,0.0601,–,0.06,0.0695,–,0.0731,–,–
G35T,0.0396,0.0666,0.0369,0.0684,–,–,0.0611,0.0509,–
E25S,0.0501,–,0.0531,0.0669,0.0893,0.009,0.0524,0.0644,0.127
V57Q,–,–,–,–,–,0.0737,0.0378,0.0607,–
L235T,–,–,–,0.0523,–,–,–,0.0383,0.103
L235F,–,–,0.0563,0.0536,–,–,–,–,–
L235P,0.0386,0.0523,0.0613,0.0694,0.0843,0.0668,–,–,–

Variant,area with substrate ENWYFQS,area with substrate ENYYFQS,area with substrate ENRYFQS,area with substrate ENEYFQS,area with substrate ENMYFQS,area with substrate ENNYFQS,area with substrate ENGYFQS,area with substrate ENTYFQS,area with substrate ENIYFQS
P9N,–,–,–,–,–,–,0.061,–,–
R51S,–,–,–,–,–,–,0.062,0.053,–
V229R,–,0.059,0.0414,0.052,–,–,–,0.0823,0.0943
V229D,–,–,–,0.0494,–,–,0.0536,–,0.159
E3V,–,–,–,–,–,–,–,0.0617,–
Y34H,–,–,–,–,–,–,0.0496,–,–
V210E,–,–,0.0553,–,0.0613,–,–,0.0462,–
V210P,–,–,–,0.0539,–,–,0.0528,0.0803,–
V58L,0.0612,–,–,0.0584,–,–,–,–,–
T31I,–,0.0597,–,0.0689,–,–,0.0639,–,–
H215L,0.0398,0.0542,0.0559,–,–,–,0.0569,0.0658,0.0838
H215K,–,0.0577,0.0625,0.0589,–,0.0558,0.0572,0.0506,0.0583
P222L,–,–,0.0819,–,–,0.0647,0.0583,0.0692,0.106
D11T,–,–,–,–,0.0713,–,–,–,–
F218V,0.0674,–,0.0631,0.0698,–,–,–,0.0622,–
F218I,–,0.0508,–,–,–,–,0.0589,0.075,–
T233Y,–,–,0.059,–,0.0929,–,–,–,0.0707
